# The source gives no read counts; variants with many changes may rest on few reads.
# B1: LINE1-mini (parent)
# chain: GGCAGAGCUCAACACAGCGUGGCAAAGUGGCUGUGGCUAGACUGCC
# Variants of: B1
# Assay: self-cleavage, relative activity (ratio to wild type); higher = more cleavage; in vitro, sequencing; the parent is a self-cleaving ribozyme
row,Variant,self-cleavage
1,A12U C15A G21A,0.05
2,C13G A26C U32A,0.01
3,C13G A39U C46G,0.04
4,C13A G27C G40C,0.03
5,C13A G19C A26C C45A,0.05
6,C13A U38A C42A,0.06
7,C13G C18A U38G A39G,0.02
8,C13G G19A G29A G33U,0.12
9,A12U U28A C37A U43C,0.04
10,A12G C23U G35A,0.01
11,C13A G17U C42A,0.37
12,C13A G17C U20C G27A U28A G29U G40A,0.03
13,C13A G19A U32A,0.03
14,C13G G17A A25G G35U,0.01
15,C13G G19A U32A,0.03
16,A12U C31U A41C,0.04
17,C13G G17A U38C A39G,0.01
18,A12G A26G U34G C37U,0.02
19,C13A G27C C31U C42U,0.04
20,C13G C15U G44U,0.11
21,C13A A24C G33U,0.06
22,C13A A14C C15U A25U G30A,0.04
23,C13A C37U A39U,0.01
24,C13A G27U G29A U32A U38C C42A,0.04

row,Variant,self-cleavage
1,C13G A39C U43A,0
2,C13G C31U C37G,0.04
3,C13A A14U C46A,0.04
4,C13G G17U A25G,0.02
5,A12G C23A G27U U38C G40C,0.01
6,C13A G35C U43G,0.08
7,A12U C18U U28G G40C,0
8,C13G C18U A26G,0.07
9,C13A C23U U32A,0
10,A12G U28A U32C,0.08
11,C13G A16G A26C,0.02
12,A12G G29C G36A G40C,0.01
13,A12U G36A C46A,0.01
14,C13G G17A C18U A25G G29A,0.44
15,C13G G19C A39C,0.09
16,A12U C15A C42A,0
17,A12G C31U A39U G44A,0.16
18,C13A C15A G36U A41U,0.03
19,C13G A16G U34A,0.01
20,C13G G17C C18A G29C,0.03
21,A12U A16G G21A,0.1
22,A12G C15A C23U G29U,0.02
23,C13A G21U A26G,0.17
24,C13A A14U C37A C42U,0.05

row,Variant,self-cleavage
1,C13A G19U G40U,0.01
2,A12U C18U U20G U32C,0.02
3,C13G A14C G21U C45G,0.01
4,C13A A24U C31G A41C C46U,0.11
5,A12U G17A G35C,0.21
6,A12U G17U A26C G36A,0.02
7,C13G C15A A16U G22U G35A A39G,0.33
8,A12G A25G G29C C46U,0
9,A12G U34C C42A,0.02
10,C13A G17A G30A,0.03
11,A12U G17A C23A G33C G44C,0.05
12,C13G A16C G40U,0.03
13,C13A C15U A16U G29A,0.13
14,C13A C15U A24C C42U,0.03
15,C13A A41U C45U,0.29
16,C13G C15U G22C G40A G44U,0.65
17,A12U G21C G22U U32G,0.05
18,C13A U34C G44U C46A,0.04
19,C13G C15G G29A,0.06
20,A12G G21C C23G,0.01
21,C13A G33A U34C,0.02
22,C13A A16C C23A A39U,0.03
23,C13A U20C C23U A24G C31G U34C,0.02
24,C13A C31A U43A C46A,0

row,Variant,self-cleavage
1,A12G C23U A26U G29U C31A U38G,0
2,C13A C18U C46A,0.04
3,A12G G21U G22A U32C U34C U43C,0.07
4,C13A G22A G27U A41U,0.15
5,A12U A14C G40U,0.03
6,C13A G21A C31U,0.09
7,C13G G19C G29A U38C G40U,0.03
8,C13A C15G G36C,0.05
9,C13A G21U G36U G44U,0.2
10,A12G G27U G33U A39G,0.11
11,A12G G17C C37U A41U,0
12,C13A C18A G29C G30A G40A,0.07
13,C13A G22U G30A,0.2
14,C13A G17C U38A U43C,0.33
15,A12G G27C C42U,0.07
16,A12U G29U C45U C46G,0.27
17,C13G G17A G27U,0.03
18,A12G A25G G40A,0.01
19,A12G C15U G19U G27C U32G,0.01
20,C13A G29C G44A,0.49
21,C13G G21C C23U,0.21
22,A12G C31U U34A C46U,0.02
23,C13A A24U C31G U34A,0.11
24,A12U G21U A25C,0.21

row,Variant,self-cleavage
1,C13A A16G A24G A25G,0.05
2,C13A G27A G29A A39U A41C,0.03
3,A12G U20C U28A,0.06
4,A12U U28A C45A,0.01
5,A12G C15A A16G,0.08
6,C13G A26U G35U,1.25
7,A12G G17U G35C A39G,0.01
8,A12G G29U C31U,0
9,C13A A24U G33U,0.04
10,C13A U20G U38A,0.02
11,A12G U38C C42A U43G,0.14
12,C13A C18A G22U C23U A25G,0.01
13,A12G C18G C23G G33C,0.05
14,C13A C23U A25C G30U G36U,0.11
15,C13A G29U G33A,0.06
16,C13A G21U C31U G33U C37A,0.01
17,A12G A26G U28A G30C U32A,0
18,C13A A14C A26G U28C G29U C37A,0.11
19,C13A U20A G27C C31A U34G,0.03
20,C13A G29U U38A C42U,0.11
21,A12G G40C A41U,0.02
22,A12G U28G G29U C45A C46U,0
23,A12G U32A C37U,0.15
24,C13G A14G G17C,0.02

row,Variant,self-cleavage
1,A12G G19A C31A U43A,0.01
2,A12G A25C U38A G44A,0.05
3,A12G G40U C46U,0.02
4,A12G G17U A26C,0.04
5,A12U A14G G17C U43A,0.1
6,A12U U32A U43A,0
7,A12G C18A G35A A41U C45A,0
8,A12G G19U C31G G33C C37U,0.01
9,A12G C23U C46A,0.01
10,C13A G33C G35C,0.02
11,C13A C15A G30A,0.1
12,C13A G17A C45G,0.07
13,C13A C31G C45G,0.01
14,A12G C13U C15A,0.02
15,C13A G19U A25U A26U G30U C45G,0.01
16,A12G A25G U32G,0.02
17,C13A G19C G22C A25G,0.02
18,C13A C31U G33C G35U,0.02
19,A12G C15U A24U G35U,0.04
20,A12U C13A G17A C42G,0.05
21,C13A G29U C46A,0.19
22,C13A C23G U38C C46A,0.05
23,A12G G30U G33A C42G C46U,0.05
24,A12U A14G U43A G44U,0

row,Variant,self-cleavage
1,C13A G27A G33U,0.02
2,C13G A41C C46G,0.09
3,C13A G22A G30C C37U,0.05
4,C13G G17A A25G G33U G40A C42A,0.03
5,A12U A14U A24C G29C U43A,0.04
6,A12G G19U A25U G29A,0.01
7,A12U U20G C23G G30U A39G,0.01
8,A12U C37U G44U,0.01
9,C13A C15U G21A U32G A41C,0.01
10,A12G G17C G21A G27C G30A,0.02
11,C13G A16U C37A U38A G44A,0.05
12,A12G C13U G19C U20C G21A C23U G30A,0.01
13,A12G G21U G30U,0.03
14,A12G G36U A41G C46U,0.09
15,A12U A14G G17C C31U C37A,0.01
16,C13A C37A G40A,0.38
17,A12U A26C G30C,0.2
18,A12U U34A G36U C37A,0
19,A12U G19C G21A U38A,0
20,A12U G22U U34G G40U G44A,0.01
21,A12U G35A G44A,0.06
22,A12G G29C U38C,0
23,C13A A26C A41U,0.12
